The results in this text go back to PubChem BioAssay AID1745853 (National Center for Advancing Translational Sciences (NCATS), 2022).

Holding throughout (assay): Primary Screen for Target Class Profiling of Small Molecule Inhibitors of Methyltransferases
Experiment [1] deals with Glycine N-methyltransferase (Homo sapiens) (UniProt Q14749). The following applies: purified enzyme, MTase-Glo SAH luminescence; measured here: GNMT inhibition; at 40 µM; stronger effect = lower value. A digest of the protocol: (§1)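 Each enzyme was assayed with SAM and its substrate. SAH formation detected by MTase-Glo luminescence; single-point 40 uM screen[…].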
Experiment [2] concerns the target Guanidinoacetate N-methyltransferase (Homo sapiens) (UniProt Q14353). The settings on record: purified enzyme, MTase-Glo SAH luminescence; measured here: GAMT inhibition; at 40 µM; stronger effect = lower value. The method, boiled down:
as §1

In experiment [3] the target is Histamine N-methyltransferase (Homo sapiens) (UniProt P50135). The following applies: purified enzyme, MTase-Glo SAH luminescence; measured here: HNMT inhibition; at 40 µM; stronger effect = lower value. The method, boiled down: as §1
For experiment [4], the target named is Nicotinamide N-methyltransferase (Homo sapiens) (UniProt P40261). The following applies: purified enzyme, MTase-Glo SAH luminescence; measured here: NNMT inhibition; at 40 µM; stronger effect = lower value. The method, boiled down: as §1
Experiment [5] has as its target Phenylethanolamine N-methyltransferase (Homo sapiens) (UniProt P11086). The settings on record: purified enzyme, MTase-Glo SAH luminescence; measured here: PNMT inhibition; at 40 µM; stronger effect = lower value. A digest of the protocol:
as §1

The structures appear in SMILES notation. Some of the results follow. The main result of the screen is listed elsewhere. These columns were measured beside it and carry no call.
% is set by controls: 0 for no effect and ±100 for the full control effect.

As to `CNC(=O)[C@H]1C[C@]2(CCCCNC2=O)N(C(=O)c2cccc(C#N)c2)[C@H]1c1ccco1`, the activity change, negative = inhibition in experiment [1] is -8.04%; in experiment [2], -13.3%; in experiment [3], -5.54%; in experiment [4] it was -16.4%; in experiment [5], -23.3%.
For `CC1(C(=O)NC2CCCCCCC2)Cn2c(cc3sccc32)C(=O)N1Cc1cccs1` (centres undefined), in that order: 3.22%, 0.442%, 7.7%, -12.1% and 3.54%.
On the same counts, the results for `CCCn1c(=O)c2ccccc2n2c(SCC(=O)Nc3cc(C)cc(C)c3)nnc12` are 4.23%, 0.956%, 9.87%, 0.753% and 2.83%.
On the same counts, the results for `COc1ccc(N2CC3CCC(C2)N3C(=O)NC(C)C)cc1` are -0.923%, -0.074%, 0.446%, 0.479% and -1.81%.
On to `CNC(=O)c1cc(C)nc2onc(C3CCN(C(=O)c4ccccc4Cl)C3)c12` (centres undefined), for which the activity change, negative = inhibition in experiment [1] was -6.87%; in experiment [2], -3.69%; in experiment [3], -1.44%; in experiment [4] it was -13.6%; in experiment [5], -5.91%.
With `CC(C)CCN1C(=O)c2ccccc2CC1(C)C(=O)NCc1ccc(Cl)cc1` (centres undefined), the activity change, negative = inhibition in experiment [1] worked out at 13.3%; in experiment [2], 0%; in experiment [3], 10.6%; in experiment [4], 3.89%; in experiment [5], 5.15%.
For `COc1ccc(-c2cc3n(n2)CC(C)(C(=O)NCc2ccccc2)N(c2ccc(C)cc2C)C3=O)cc1` (centres undefined), in that order: 8.7%, 0%, 9.83%, 10.2% and 2.95%.
For `CCOc1ccc(CN2C(=O)c3cc4ccccc4n3CC2(C)C(=O)NCCC(C)C)cc1OC` (centres undefined), in that order: -4.04%, 2.93%, -2.77%, -9.99% and -4.28%.
For `COc1ccc(-c2cc3n(n2)CC(C)(C(=O)NCc2ccccc2)N(c2cccc(C)c2C)C3=O)cc1` (centres undefined), in that order: -0.289%, 3.99%, 2.37%, 4.28% and -2.82%.
On to `CC(C)(C)c1cc2n(n1)CC(C)(C(=O)NC1CCCCCC1)N(Cc1ccccc1)C2=O` (centres undefined), for which the activity change, negative = inhibition in experiment [1] is 2.98%; in experiment [2] it was 0.391%; in experiment [3] it was 1.82%; in experiment [4], -1.47%; in experiment [5] it was -0.061%.
On the same counts, the results for `O=C(O)Cc1cn(C2OCC(O)C(O)C2O[C@@H]2O[C@H](CO)[C@@H](O)[C@H](O)[C@H]2O)c2ccccc12` (some centres undefined) are 0%, 8.61%, 6.43%, -5.89% and 7.94%.
For `COc1ccccc1CNC(=O)CCCc1nnc2n3nc(-c4ccccc4)nc3c3ccccc3n12`, in that order: -11.7%, 0%, 1.8%, 3.79% and -4.66%.
Consider `CCOCC(O)Cn1cnc(-c2ccccc2)c1-c1cccc(OC)c1F` (centres undefined), for which the activity change, negative = inhibition in experiment [1] is -3.51%; in experiment [2], 2.04%; in experiment [3], 1.34%; in experiment [4], -8.08%; in experiment [5] it was 1.05%.
For `O=C(NCCN1CCCCC1)c1cc2n(n1)CCCN(Cc1ccc(Cl)cc1)C2=O`, in that order: -0.066%, 0%, -5.04%, 1.79% and 6.24%.
In the case of `CN(C1CCCCC1)S(=O)(=O)C1CCS(=O)(=O)C1` (centres undefined), the activity change, negative = inhibition was 0.875% in experiment [1]; -3.55% in experiment [2]; 3.38% in experiment [3]; 0.381% in experiment [4]; 1.39% in experiment [5].
On the same counts, the results for `Cn1c(=O)c2ccc(C(=O)NC3CCCC3)cc2n2c(SCC(=O)Nc3cccc(F)c3)nnc12` are -1.9%, 0%, 4.14%, -0.307% and 8.05%.
On the same counts, the results for `CCCn1c(=O)c2ccc(C(=O)NCC(C)C)cc2n2c(=O)n(CC(=O)NC3CCCCC3)nc12` are 3.54%, 0.324%, 6.6%, 0.624% and 3.56%.
`CN[C@H](CC(=O)O)C(=O)O`: the activity change, negative = inhibition was -1.19% in experiment [1]; 6.9% in experiment [2]; 0.317% in experiment [3]; -5.37% in experiment [4]; 4.72% in experiment [5].
`C[S+](=O)([O-])NCCNC(=O)c1cccc(-c2ccc(C(F)(F)F)cc2)c1`: the activity change, negative = inhibition in experiment [1] is -1.97%; in experiment [2] it was -1.24%; in experiment [3], 0.17%; in experiment [4] it was -1.11%; in experiment [5] it was 4.57%.
For `O=C(N[C@@H]1CN(C(=O)c2nccc3ccccc23)C[C@H]1CO)c1ccccc1`, in that order: -0.131%, 1.5%, 2.94%, -3.53% and -3.77%.
Turning to `CCCn1c(=O)c2cc(F)ccc2n2c(SCc3cccc(F)c3)nnc12`, the activity change, negative = inhibition in experiment [1] was -7.8%; in experiment [2], 0.773%; in experiment [3], 6.85%; in experiment [4], -4.72%; in experiment [5] it was 6.47%.
As to `C=C(NC(=O)C(=C)NC(=O)c1csc(C2=NC3c4csc(n4)C4NC(=O)c5csc(n5)C(C(C)(O)C(C)O)NC(=O)C5CSC(=N5)C(=CC)NC(=O)C(C(C)O)NC(=O)c5csc(n5)C3(CC2)NC(=O)C(C)NC(=O)C(=C)NC(=O)C(C)NC(=O)C(C(C)CC)NC2C=Cc3c(C(C)O)cc(nc3C2O)C(=O)OC4C)n1)C(N)=O` (centres undefined), the results for the activity change, negative = inhibition in experiment [2], in experiment [4] and in experiment [5] were -12.8%, 2.43% and 8.6%, respectively.
For `NC(=O)c1cnc(N[C@@H]2CCCC[C@@H]2N)nc1Nc1cccc(-n2nccn2)c1`, in that order: 6.8%, -23.9% and -12%.
For `CN[C@H]1CCN(C(=O)c2ccc(Nc3ncc(F)c(-c4cnc(C)n4C(C)C)n3)cc2)C1`, in that order: 6.53%, -16.8% and 2.86%.
Regarding `Cc1ccc([C@H]2Nc3ccc(S(=O)(=O)Nc4ccc(C)c(Cl)c4)cc3[C@H]3C=CC[C@H]32)cc1`, the activity change, negative = inhibition in experiment [1] is -11.2%; in experiment [2], -5.09%; in experiment [3], -14.9%; in experiment [4], -15.5%; in experiment [5], -15.4%.
On the same counts, the results for `C[C@]12C=C[C@@]3(CCC4[C@](C)(CO)CCC[C@@]4(C)C3CC1)C2` (some centres undefined) are -2.21%, -7.1%, 3.74%, -13.8% and -14.2%.
On the same counts, the results for `COc1cc(CN2CCN(c3ccc(C#N)cn3)CC2CCO)cc(OC)c1` (centres undefined) are -7.32%, -6.62%, -3.12%, -21.1% and -3.93%.
For `CCn1c(=O)n(CC)c2cc(S(=O)(=O)N3CCN(c4ccc(F)cc4)CC3)ccc21`, the activity change, negative = inhibition is 2.29% in experiment [1]; 0% in experiment [2]; 1.43% in experiment [3]; -5.55% in experiment [4]; 3.25% in experiment [5].
On the same counts, the results for `COc1ccc(NC(=O)Cn2nc3nc(Nc4ccc(F)cc4)ccn3c2=O)cc1Cl` are -7.27%, 0%, 0.697%, -0.684% and 1.59%.
On the same counts, the results for `CC(C)(C)c1cc2n(n1)CC(C)(C(=O)NC1CCCCC1)N(Cc1ccc(F)cc1)C2=O` (centres undefined) are -8.19%, -0.245%, -1.57%, -1.01% and -2.08%.
